About 2,600 (0.72%) of roughly 360,000 compounds were called active. This list was built around the results that the source calls inconclusive (neither active nor inactive); the mix of calls is not that of the screen. Calls follow the shape of the dose curve; as a rule, active = well fitted inhibition curve with a large enough effect; inconclusive = small, poorly fitted or top-dose-only effect; inactive = no such curve, though single readings can be large or run the other way. Potencies beside an inconclusive call are fits to weak or partial responses and may not hold up.
assay: Primary qHTS for Inhibitors of ATXN expression; details: HEK-293 ATXN2-luciferase reporter, luminescence, 24 h; activity change, negative = inhibition: at 57 µM (top of the series); also: nearly all actives have a fitted effect of over 55% in size
In short: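 ATXN2-luciferase reporter cells (luciferase flanked by upstream and downstream ATXN2 gene portions) were treated 24 h at 37 °C with compounds at up to 57 uM. SteadyGlo luminescence gave expression; GF-AFC fluorescence gave viability.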
% is scaled to controls: 0 for no effect and ±100 for the full control effect; potency is read from the fitted curve at half-maximal effect; tags tell the direction and shape of the fitted curve.

Row | SMILES | Potency | activity change, negative = inhibition
1 | COC(=O)c1cc(S(=O)(=O)n2nc(C)c(Br)c2C)c(Cl)cc1Cl | inactive | –
2 | CCCC1NC(=O)c2cc3ccccc3cc2-n2c1nc1ccc(F)cc1c2=O (stereo not drawn) | inconclusive: 39.8 µM [inhibitor, single point] | –
3 | Cc1cc(C)cc(NC(=O)Cn2cc(C(=O)C3CCCCC3)c3ccccc32)c1 | inactive | –
4 | Cc1[nH]n(-c2ccc(Cl)cc2)c(=O)c1C(=O)c1ccccc1 | – | inconclusive: -70.1% [inhibitor]
5 | COc1cc(C)c(Sc2cnc(NC(=O)c3ccc(CNC(C)C(C)C)cc3)s2)cc1C(=O)N1CCN(C(C)=O)CC1 (stereo not drawn) | inconclusive: 3.85 µM [inhibitor, full curve, poor fit] | –
6 | Cc1ccc(/C=C2\SC(=S)N(CCC(=O)NNC(=O)c3ccccc3O)C2=O)cc1 | inconclusive: 39.8 µM [inhibitor, partial curve, poor fit] | –
7 | OC[C@@H]1CN(Cc2cccs2)C[C@H](n2cnc3c(NCc4ccco4)ncnc32)O1 | inactive | –
8 | COc1cc(Br)cc(C2C3=C(CCCC3=O)N(c3ccc(F)cc3)C3=C2C(=O)CCC3)c1O | inconclusive: 17.8 µM [inhibitor, partial curve] | –
9 | CCc1nnc(NC(=O)C2CCCN(c3nc4ccccc4s3)C2)s1 (stereo not drawn) | inactive | –
10 | C=CCC[C@@H](Cc1ccc(F)cc1)C(=O)OC[C@H]1CCCN1C(=O)[C@@H](CC=C)CC(=O)N[C@H](CO)Cc1ccccc1 | inconclusive: 35.5 µM [inhibitor, single point] | –
11 | COc1ccc([C@@H]2CC=C(C(=O)O)[C@H](c3ccc(C(C)(C)C)cc3)N2S(=O)(=O)c2ccc(C)cc2)cc1OC | inactive | –
12 | c1ccc(-n2c(SCC3CCCCO3)nnc2-c2cccs2)cc1 (stereo not drawn) | inactive | –
13 | Cc1ccc(C)c(NC(=S)NC(NC(=O)/C=C/c2ccccc2)C(Cl)(Cl)Cl)c1 (stereo not drawn) | inconclusive: 31.6 µM [inhibitor, single point] | –
14 | Cc1ccc(Cl)cc1-n1ncc2c(N3CCN(Cc4ccccc4)CC3)ncnc21 | active: 15.8 µM | –
15 | COc1ccc(/C=N/NC(=O)c2cccnc2)cc1COc1ccc([N+](=O)[O-])cc1 | inconclusive: 44.7 µM [inhibitor, partial curve, poor fit] | –
16 | Cc1ccc(-c2ccc(SCC(=O)c3ccccc3)nn2)cc1 | inconclusive: 6.31 µM [inhibitor, single point] | –
17 | CCCCc1ccc(NC(=S)N2CCN(C(=O)OCC)CC2)cc1 | inactive | –
18 | O=C(C1CCN(S(=O)(=O)Cc2ccccc2)CC1)N1CCN(c2cccc(C(F)(F)F)c2)CC1 | inactive | –
19 | COc1ccccc1N(C)S(=O)(=O)c1ccc(Cl)c(C(=O)OCc2c(C)noc2C)c1 | inconclusive: 39.8 µM [inhibitor, single point] | –
20 | CC(=O)C1CCC2C3CC=C4CC(SC(=N)N)CCC4(C)C3CCC12C (stereo not drawn) | inconclusive: 33.6 µM [inhibitor, single point] | –
21 | CC1CCN(CC2CCN(C(=O)Nc3ccc(Br)cc3F)CC2)CC1 | inactive | –

Row | SMILES | Potency | activity change, negative = inhibition
22 | CCOC(=O)c1c(-c2ccccc2)nc2cc(C)ccn12 | inactive | –
23 | COc1cc(S(=O)(=O)NCCc2c(C)[nH]c3ccccc23)c(C)cc1C | inconclusive: 22.4 µM [inhibitor, single point] | –
24 | CCOC(=O)N1CCC(NC(=O)c2cnn3c(C(F)(F)F)cc(-c4cccc(OC)c4)nc23)CC1 | inconclusive: 14.1 µM [inhibitor, partial curve, poor fit] | –
25 | COc1ccc(CCNC(=O)c2nc(-c3ccc(Cl)cc3)n3c2CCCCC3)c(OC)c1 | inconclusive: 31.6 µM [inhibitor, single point] | –
26 | O=C1C=C(c2ccnc3cc(Cl)ccc23)C[C@@H](c2ccc3c(c2)OCO3)C1 | inconclusive: 11.2 µM [inhibitor, partial curve] | –
27 | CN(C)c1nc(NC(C)(C)C)nc(NC(C)(C)C)n1 | inconclusive: 1.68 µM [inhibitor, partial curve, poor fit] | –
28 | CCc1noc(C)c1C(=O)N(C)CC(=O)Nc1ccc(F)c(F)c1F | inactive | –
29 | NC(CCc1ccccc1)c1csc(NC(=O)Nc2cccc(C(F)(F)F)c2)n1 (stereo not drawn) | inconclusive: 31.6 µM [inhibitor, single point] | –
30 | CC(=O)N1c2ccc(S(=O)(=O)N3CCCC3C(=O)NCc3ccc(Cl)cc3)cc2CC1C (stereo not drawn) | inactive | –
31 | COc1ccc(-c2csc3ncnc(Nc4cccc(OC)c4)c23)cc1 | inconclusive: 28.2 µM [inhibitor, partial curve, poor fit] | –
32 | COc1ccc([C@H]2/C=C\CN(C(=O)CC(C)(C)C)[C@@H](C)C(=O)N2Cc2ccc(F)cc2)cc1 | inconclusive: 35.5 µM [inhibitor, partial curve, poor fit] | –
33 | Cc1cc(C)c2sc(NNC(=O)C3COc4ccccc4O3)nc2c1 (stereo not drawn) | inconclusive: 39.8 µM [inhibitor, partial curve, poor fit] | –
34 | CCCc1ccc(O)c(N=Cc2cc(Br)cc(OCC)c2O)c1 | inconclusive: 25.1 µM [inhibitor, single point] | –
35 | Cc1ccc(NC(=O)C(=O)NCC(c2cccnc2)N2CCN(Cc3ccccc3)CC2)cc1F (stereo not drawn) | inactive | –
36 | CC[C@]1(O)C[C@H]2CN(CCC3=c4ccccc4=N[C]3[C@@](C(=O)OC)(c3cc4c(cc3OC)N(C)[C@H]3[C@@](O)(C(N)=O)[C@H](O)[C@]5(CC)C=CCN6CC[C@]43[C@@H]65)C2)C1 | inconclusive: 0.0343 µM [inhibitor, partial curve, poor fit] | –
37 | c1ccc(CNc2nc(-c3ccccn3)nc3ccccc23)cc1 | inconclusive: 2.51 µM [inhibitor, full curve, poor fit] | –
38 | Clc1cccc(Cl)c1Cn1cnc2c(N3CCCCCC3)ncnc21 | inconclusive: 39.8 µM [inhibitor, single point] | –
39 | CCN(CC)CCCN=C1N[C@@H](c2cccc(F)c2)C(C(=O)OC)=C(C)N1Cc1ccccc1 | active: 22.4 µM | –
40 | Cn1c(N)c(C(=O)CSc2nn(-c3ccccc3)c(=S)s2)c(=O)n(C)c1=O | inconclusive: 20 µM [inhibitor, partial curve, poor fit] | –
41 | O=C(CCl)N(C1CCCC1)C1CCS(=O)(=O)C1 (stereo not drawn) | – | inconclusive: -40.2% [inhibitor]
42 | CC(=O)N1CCCc2cc(S(=O)(=O)N3CCCC(C(=O)N4CCN(c5ccccc5)CC4)C3)ccc21 (stereo not drawn) | inconclusive: 28.2 µM [inhibitor, single point] | –

Row | SMILES | Potency | activity change, negative = inhibition
43 | CCCCN(C)CCCNC(=O)c1cc(-c2cccs2)nc2ccccc12 | inconclusive: 3.98 µM [inhibitor, partial curve, poor fit] | –
44 | COc1ccc(CCNCc2ccc(-c3ccccc3)cc2)cc1OC | inconclusive: 10 µM [inhibitor, single point] | –
45 | COc1ccc(Nc2oc(COc3ccc(OC)cc3)nc2C#N)cc1 | active: 14.1 µM | –
46 | Cc1ccc(NC(=O)c2ccccc2O)cc1 | inactive | –
47 | Cc1cccc(NC(=O)c2nc[nH]c2C(=O)NCCCCCNC(=O)OC(C)(C)C)c1 | inconclusive: 35.5 µM [inhibitor, single point] | –
48 | N#C/C(=C(/O)COC(=O)CSc1ccc2ccccc2c1)c1nc2ccccc2[nH]1 | inconclusive: 39.8 µM [inhibitor, single point] | –
49 | CC(C)CC1C(=O)N(Cc2cn(CCC3OCCO3)nn2)CCS(=O)(=O)N1Cc1ccc(-c2cccc(N(C)C)c2)cc1 (stereo not drawn) | inconclusive: 39.8 µM [inhibitor, single point] | –
50 | CC(C)C[C@@H](CN1CCCC1CN1C(=S)NC[C@@H]1Cc1ccc(O)cc1)N1C[C@H](Cc2ccc(O)cc2)N(CCc2ccccc2)C1=S (stereo partly drawn) | inconclusive: 25.1 µM [inhibitor, single point] | –
51 | Cc1ccnc(NC(=O)c2ccc(C(=O)c3ccccc3)cc2)c1 | inconclusive: 20 µM [inhibitor, single point] | –
52 | CCCCCCCn1c(=N)n(CC(O)c2ccco2)c2ccccc21 (stereo not drawn) | inconclusive: 21.2 µM [inhibitor, partial curve, poor fit] | –
53 | CC(NC(=O)c1ccc2c(=O)n3c(nc2c1)CCC3)c1ccc(S(N)(=O)=O)cc1 (stereo not drawn) | inactive | –
54 | C[C@@H](NC(=O)c1[nH]cnc1C(=O)Nc1ccon1)c1ccccc1 | inactive | –
55 | O=C(Nc1nc2c(F)cc(F)cc2s1)c1ccccn1 | inconclusive: 37.7 µM [inhibitor, single point] | –
56 | COc1ccc(S(=O)(=O)N(C)CC(=O)Nc2ccccc2SC)cc1Cl | inconclusive: 20 µM [inhibitor, partial curve, poor fit] | –
57 | Cc1ccc(C(C(=O)NCc2ccco2)N(C(=O)CNC(=O)c2cccs2)c2c(C)cc(C)cc2C)cc1 (stereo not drawn) | inconclusive: 39.8 µM [inhibitor, single point] | –
58 | COc1cnc(-c2ccccn2)nc1Sc1cccc(Cl)c1 | inconclusive: 31.6 µM [inhibitor, single point] | –
59 | O=C(CN1CCOCC1)N/N=C/c1c(O)ccc2ccccc12 | active: 10.6 µM | –
60 | Cc1nn(C)cc1CN(C)C(=O)c1cc(-c2ccccc2)nc2ccc(Br)cc12 | inconclusive: 39.8 µM [inhibitor, single point] | –
61 | COc1ccc(C(=O)CSc2nnc(CCc3ccccc3)n2-c2ccccc2)cc1 | inconclusive: 12.6 µM [inhibitor, partial curve, poor fit] | –
62 | COc1ccc2sc(-c3ccc(SC)cc3)c(-c3ccc(O)cc3)c2c1 | active: 22.4 µM | –
63 | O=C(COc1ccc(F)cc1)Nc1nc(-c2ccccn2)cs1 | inconclusive: 35.5 µM [inhibitor, single point] | –
